# Results from the supplement of paper PMC9135407.
# Several values for one entry are separate records, joined by “and”; a condition that tells them apart may be missing. Equal values may be shown once. Where a name gives a salt, the structure may show the parent alone. In all, about 5,800 compounds went through this assay and about 620 (11%) showed activity.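 Rule for the calls: active = score above a cut-off or among the top three wells of a plate; in these data no inactive exceeds 0.85.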 The list shows a part of the results, in another mix than the full data.
# System: primary human hepatic stellate cells (donor 1)
# Test: scaled lipid accumulation score (0 = DMSO-like, 1 = nortriptyline-like); higher = stronger HSC inactivation (lipid re-accumulation), active = hit call of the paper
# Conditions: 48 h
# [1] = library stock concentration: 7.3 mM
# [2] = library stock concentration: 10 mM
# [3] = library stock concentration: 3.33 mM
structure (smiles),measurement,setting,value
CNC(=O)Oc1ccc2c(c1)[C@]1(C)CCN(C)[C@@H]1N2C [Physostigmine sulfate],scaled lipid accumulation score,[1],inactive: ≤ -0.006
CNC(=O)Oc1ccc2c(c1)[C@]1(C)CCN(C)[C@@H]1N2C [Physostigmine],scaled lipid accumulation score,[2],inactive: ≤ 0
CCN(CC)CCOC(=O)C(O)(c1ccccc1)c1ccccc1,scaled lipid accumulation score,[2],inactive: ≤ 0
CN(C)C(=O)Oc1ccc[n+](C)c1 [Pyridostigmine bromide],scaled lipid accumulation score,library stock concentration: 7.7 mM,inactive: ≤ 0
same,scaled lipid accumulation score,[2],inactive: ≤ 0 and inactive: ≤ -0.027
CN(C)C(=O)Oc1ccc[n+](C)c1 [Mestinon],scaled lipid accumulation score,[2],inactive: ≤ 0
CN(C)C(=O)Oc1ccc[n+](C)c1 [Pyridostigmine Bromide],scaled lipid accumulation score,[3],inactive: ≤ 0
same,scaled lipid accumulation score,[2],inactive: 0.164
C[C@@H]1O[C@@H](O[C@@H]2C=C3CC[C@@H]4[C@H](CC[C@]5(C)[C@@H](c6ccc(=O)oc6)CC[C@]45O)[C@@]3(C)CC2)[C@H](O)[C@H](O)[C@H]1O [Proscillaridin A],scaled lipid accumulation score,,inactive: 0.768
CN1CCN(c2nc3ccccc3nc2Cl)CC1,scaled lipid accumulation score,[3],inactive: ≤ 0
same,scaled lipid accumulation score,[2],inactive: 0.211
C#CCN(C)[C@H](C)Cc1ccccc1 [Selegiline],scaled lipid accumulation score,library stock concentration: 10.7 mM,inactive: ≤ -0.006
C#CCN(C)[C@H](C)Cc1ccccc1 [Selegiline hydrochloride],scaled lipid accumulation score,,inactive: 0.133
same,scaled lipid accumulation score,library stock concentration: 8.9 mM,inactive: ≤ 0
"C#CCN(C)[C@H](C)Cc1ccccc1 [Benzeneethanamine, N,Alpha-dimethyl-N-2-propynyl-(R)- [CAS]]",scaled lipid accumulation score,[2],inactive: ≤ 0
C[C@]12CC[C@@H](O)C[C@H]1CC[C@@H]1[C@@H]2CC[C@]2(C)C(=O)CC[C@@H]12 [3-alpha-Hydroxy-5-beta-androstan-17-one],scaled lipid accumulation score,,inactive: ≤ 0
CC(N)c1cccc(Cl)c1Cl (stereo not drawn),scaled lipid accumulation score,[2],inactive: 0.208
N[C@H](C(=O)O)c1cc(O)no1 [(?)-Ibotenic acid],scaled lipid accumulation score,[2],inactive: 0.002
N[C@H](C(=O)O)c1cc(O)no1 [Ibotenic acid],scaled lipid accumulation score,[2],inactive: ≤ 0
CCN1CC2(OC(=O)c3ccccc3NC(C)=O)CCC(OC)C34C1C(CC23)C1(O)CC(OC)C2CC4C1(O)C2OC (stereo not drawn) [Lappaconite HBr],scaled lipid accumulation score,[3],inactive: ≤ 0
same,scaled lipid accumulation score,[2],inactive: ≤ 0
CC(C)NCC(O)c1ccccc1Cl (stereo not drawn) [Clorprenaline HCl],scaled lipid accumulation score,[3],inactive: ≤ 0
same,scaled lipid accumulation score,[2],inactive: ≤ -0.001
Br.Br.N=C(NCc1ccc(Cl)cc1)SCCCc1c[nH]cn1 [Clobenpropit dihydrobromide],scaled lipid accumulation score,[2],active: 1.53
CCCCC/C=C\C/C=C\C/C=C\C/C=C\CCCC(=O)N[C@@H](CO)C(=O)O [N-Arachidonoyl-L-Serine],scaled lipid accumulation score,library stock concentration: 1 mM,inactive: ≤ 0
CC(=O)NCCc1c[nH]c2ccccc12 [N-Acetyltryptamine],scaled lipid accumulation score,[2],inactive: 0.21 and inactive: 0.006
CC(C(=O)OC1CC2CCC(C1)N2C)c1ccc(Br)cc1.O=C(O)/C=C\C(=O)O (stereo not drawn) [PG-9 maleate],scaled lipid accumulation score,[2],active: 0.958
O=c1[nH]c2ccccc2n1C1CCN(CCCC(c2ccc(F)cc2)c2ccc(F)cc2)CC1 [Pimozide],scaled lipid accumulation score,,inactive: 0.242
same,scaled lipid accumulation score,[2],inactive: 0.021
CCCN1CC[C@@H]2c3cc(O)ccc3CC[C@@H]21 (racemic) [cis(+/-)-8-OH-PBZI hydrobromide],scaled lipid accumulation score,[2],inactive: 0.069
O=C(O)/C=C/CO [trans-4-Hydroxycrotonic acid],scaled lipid accumulation score,[2],inactive: 0.003
CC(=O)Nc1cc([As](=O)(O)O)ccc1O [Acetarsol],scaled lipid accumulation score,[1],inactive: ≤ 0
same,scaled lipid accumulation score,[2],inactive: ≤ 0
C/C=C(\C)C(=O)O[C@H]1C[C@@H](OC(C)=O)[C@@]2(C(=O)OC)CO[C@H]3[C@@H](O)[C@@](C)([C@]45O[C@@]4(C)[C@H]4C[C@@H]5O[C@@H]5OC=C[C@@]54O)[C@H]4[C@]1(CO[C@]4(O)C(=O)OC)[C@@H]32 [Azadirachtin],scaled lipid accumulation score,[2],inactive: ≤ -0.027
Cc1cc2c(C(C)C)c(O)c(O)c(C=O)c2c(O)c1-c1c(C)cc2c(C(C)C)c(O)c(O)c(C=O)c2c1O [Gossypol],scaled lipid accumulation score,,inactive: ≤ 0
same,scaled lipid accumulation score,[3],inactive: 0.016
same,scaled lipid accumulation score,[2],inactive: 0.824 and inactive: 0.57
Cc1cc2c(C(C)C)c(O)c(O)c(C=O)c2c(O)c1-c1c(C)cc2c(C(C)C)c(O)c(O)c(C=O)c2c1O,scaled lipid accumulation score,[3],inactive: ≤ 0
same,scaled lipid accumulation score,[2],inactive: 0.142
C=CCN1CC[C@]23CCCC[C@H]2[C@H]1Cc1ccc(O)cc13 [Levallorphan tartrate],scaled lipid accumulation score,library stock concentration: 7.1 mM,inactive: 0.152
same,scaled lipid accumulation score,[2],inactive: 0.71
O=c1ccc2[nH]cc(C3=CCNCC3)c2[nH]1,scaled lipid accumulation score,[2],inactive: 0.084 and inactive: ≤ -0.006
CC[C@H]1CN2CC[C@H]1C[C@H]2[C@H](O)c1ccnc2ccc(OC)cc12 [Hydroquinine hydrobromide hydrate],scaled lipid accumulation score,,inactive: ≤ 0
